# “And” between values parts separate entries of the source, which are not always exact repeats. Equal entries are not always repeated. The inconclusive results got no clear call from the source; some entries with a clear call stand among them for comparison. A potency beside an inconclusive call is a rough fit, not a confirmed value. The source made the active and inactive calls. Unless noted, the call rests on the fitted dose curve; in most records, active means well fitted curve in the direction sought with a large enough effect in the repeat runs; inconclusive means weak or mixed curves; inactive means no such curve, though single readings can be large; an effect the other way counts as inactive or inconclusive.
# Assays:
# [1] = qHTS assay for small molecule agonists of the p53 signaling pathway (AID 651631; calls by dose curve; further: nearly all actives have a fitted effect of over 15% in size; on activation: on the % scale 0 is the no-effect control and ±100 the full control effect); conditions: HCT-116 p53RE-bla reporter, beta-lactamase FRET ratio, 16 h; activation: at 73.3 µM (top of the series) unless noted
# Procedure, shortened: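 Testing took place in human colorectal HCT-116 cells with stable p53RE-driven beta-lactamase. After 16 h of compound exposure at 37 °C, a FRET substrate was added and fluorescence recorded 2 h later.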
# [2] = qHTS assay for small molecule disruptors of the mitochondrial membrane potential (AID 720635); conditions: HepG2 mitochondrial membrane potential, Mito-MPS dye ratio; ratio activity, negative = MMP loss: at 83.2 µM (top of the series) unless noted; on ratio activity, negative = MMP loss: on the % scale 0 is the no-effect control and ±100 the full control effect
# Procedure, shortened: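 Mitochondrial membrane potential tracked with Mito-MPS dye, red aggregates (ex 540/em 590 nm) against green monomers (ex 490/em 535 nm). Compound treatment 1 hr at 37C, dye 30 min in HepG2.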
# [3] = target: Glucocorticoid receptor (Homo sapiens) (UniProt P04150); test: qHTS assay to identify small molecule antagonists of the glucocorticoid receptor (GR) signaling pathway (AID 720692; active means well fitted inhibition curve with a large enough effect in the signal ratio in the repeat runs, not every such curve was filed as active; inconclusive means weak or mixed curves, or effect the other way; inactive means no such curve, though single readings can be large or run the other way; the % refers to the signal ratio; on activity change, negative = inhibition: on the % scale 0 is the no-effect control and ±100 the full control effect); conditions: GR-bla HeLa, beta-lactamase FRET ratio, dexamethasone-stimulated, 18 h; activity change, negative = inhibition: at 58.5 µM (top of the series) unless noted
# Sequence of UniProt P04150 (P04150 whole entry, looked up): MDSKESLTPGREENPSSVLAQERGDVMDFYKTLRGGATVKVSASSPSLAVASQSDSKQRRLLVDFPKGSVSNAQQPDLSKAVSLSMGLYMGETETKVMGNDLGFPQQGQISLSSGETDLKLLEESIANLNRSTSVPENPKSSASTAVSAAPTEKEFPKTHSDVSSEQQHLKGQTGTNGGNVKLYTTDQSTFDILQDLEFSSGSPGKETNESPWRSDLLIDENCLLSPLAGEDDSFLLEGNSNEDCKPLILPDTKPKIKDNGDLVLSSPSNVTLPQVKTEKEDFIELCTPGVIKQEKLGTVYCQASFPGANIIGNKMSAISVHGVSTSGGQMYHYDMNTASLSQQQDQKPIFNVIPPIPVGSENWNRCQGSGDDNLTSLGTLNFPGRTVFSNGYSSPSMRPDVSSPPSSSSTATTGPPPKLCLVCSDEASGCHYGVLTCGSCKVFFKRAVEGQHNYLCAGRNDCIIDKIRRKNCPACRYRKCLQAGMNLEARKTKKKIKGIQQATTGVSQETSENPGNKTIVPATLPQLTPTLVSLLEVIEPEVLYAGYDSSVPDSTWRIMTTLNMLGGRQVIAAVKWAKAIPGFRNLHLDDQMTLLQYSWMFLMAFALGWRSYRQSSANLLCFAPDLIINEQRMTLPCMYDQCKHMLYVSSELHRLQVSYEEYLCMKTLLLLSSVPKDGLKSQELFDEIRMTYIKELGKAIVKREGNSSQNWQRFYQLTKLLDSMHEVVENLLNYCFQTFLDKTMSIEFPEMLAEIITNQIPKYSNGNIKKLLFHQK
# Procedure, shortened: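 Inhibition of glucocorticoid signalling is measured in HeLa cells with a GRE-controlled beta-lactamase reporter; cells are co-treated with compound and 5 nM dexamethasone (final) for 18 h before FRET substrate readout.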
# [4] = target: Glucocorticoid receptor (Homo sapiens) (UniProt P04150); test: qHTS assay to identify small molecule agonists of the glucocorticoid receptor (GR) signaling pathway (AID 720691; active means well fitted activation curve with a large enough effect in the signal ratio in the repeat runs, not every such curve was filed as active; inconclusive means weak or mixed curves, or effect the other way; inactive means no such curve, though single readings can be large or run the other way; the % refers to the signal ratio; on activation: on the % scale 0 is the no-effect control and ±100 the full control effect); conditions: GR-bla HeLa, beta-lactamase reporter ratio, 18 h; activation: at 62.4 µM (top of the series) unless noted
# Procedure, shortened: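 qHTS in GR-bla HeLa cells: 4 h settling at 37 C/5% CO2, 18 h compound incubation at 37 C, 2 h LiveBLAzer B/G FRET substrate at room temperature, fluorescence intensity measured.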
# [5] = qHTS assay to identify small molecule antagonists of the glucocorticoid receptor (GR) signaling pathway - cell viability counter screen (AID 720693); conditions: GR-bla HeLa viability, CellTiter-Glo luminescence, 18 h, with 5 nM dexamethasone present; viability change, negative = cytotoxic: at 58.5 µM (top of the series); further: nearly all actives have a fitted effect of over 55% in size
# [6] = qHTS assay to test for compound auto fluorescence at 460 nm (blue) in HEK293 cells (AID 720678)
# Procedure, shortened: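 Blue read-out at excitation 405 nm and emission 460 nm follows overnight compound exposure of HEK293 cells at 37C in 5% CO2. Activity is given as auto fluorescence equivalency to triamterene.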
# [7] = qHTS assay to test for compound auto fluorescence at 460 nm (blue) in HEK293 cell free culture (AID 720681)
# Procedure, shortened: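 Blue fluorescence (Ex 405/Em 460 nm, triamterene-equivalent) was read immediately after pin transfer of compound or DMSO into medium (DMEM, 10% FBS) without cells.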
# [8] = qHTS assay to test for compound auto fluorescence at 460 nm (blue) in HepG2 cell free culture (AID 720685)
# Procedure, shortened: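 Compound (23 nL) or DMSO pinned into cell-free MEM with 10% FBS; blue fluorescence read at 405/460 nm excitation/emission, expressed as auto-fluorescence equivalency to triamterene.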
# [9] = qHTS assay to test for compound auto fluorescence at 460 nm (blue) in HepG2 cells (AID 720687)
# Procedure, shortened: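 Blue-channel autofluorescence (Ex/Em 405/460 nm, triamterene-equivalent) was measured after 1 hr compound exposure at 37 C, 5% CO2. Cells were HepG2, plated overnight at 37 C in MEM plus 10% FBS.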
# Potency means the concentration at half of the fitted maximal effect; tags describe the fitted curve by direction and shape or compound fluorescence and quenching.
smiles,measurement,setting,value
CNS(=O)(=O)Cc1ccc2[nH]cc(CCN(C)C)c2c1,Potency,[1],inactive
same,Potency,[2],active: 29.8 µM
same,"activity change, negative = inhibition",[3],inconclusive: 8.04%
CC(=O)c1ccc(OCC(=O)N2CCCCC2)cc1,Potency,[1],"inconclusive: 1.19 µM [activator, single point]"
same,Potency,[4],inactive
c1ccc(CNCc2ccccc2)cc1,Potency,[1],inactive
same,Potency,[2],"inconclusive: 21.7 µM [activator, full curve]"
same,"activity change, negative = inhibition",[3],inconclusive: 15%
O=C(O)c1cccc(C(F)(F)F)c1,Potency,[1],inactive
same,"ratio activity, negative = MMP loss",[2],inconclusive: 10.6%
same,Potency,[3],inactive
O=C1c2ccccc2C(=O)c2c(O)ccc(O)c21,Potency,[1],inactive
same,Potency,[2],active: 3.06 µM
same,"activity change, negative = inhibition",[3],inconclusive: 31.2%
same,Potency,[5],"inconclusive: 61.6 µM [rising, partial curve, poor fit]"
CN(C(=O)c1c(O)c2ccccc2n(C)c1=O)c1ccccc1,Potency,[1],inactive
same,Potency,[2],inactive
same,Potency,[3],inactive
O=S(=O)(O)c1ccc(N=Nc2c(O)ccc3ccccc23)cc1,Potency,[1],inactive
same,Potency,[2],"inconclusive: 27.3 µM [activator, partial curve]"
same,"activity change, negative = inhibition",[3],inconclusive: -10.1%
OCC(CO)n1cnc(-c2ccc(F)cc2)c1-c1ccnc(Oc2ccccc2)n1,Potency,[1],"inconclusive: 0.611 µM [falling, partial curve]"
same,Potency,[2],"inconclusive: 0.544 µM [activator, full curve, poor fit]"
same,"activity change, negative = inhibition",[3],inconclusive: 16.1%
C#CC(C)(O)CC(C)C (stereo not drawn),Potency,[1],inactive
same,activation,[4],inconclusive: 2.2% [phenotype inactive]
O=C(C(Cl)Cl)N1CCOC12CCCCC2,Potency,[1],inactive
same,Potency,[2],"inconclusive: 68.6 µM [inhibitor, single point]"
same,Potency,[5],"inconclusive: 38.9 µM [cytotoxic, partial curve, poor fit]"
CCCCCc1ccco1,Potency,[1],"inconclusive: 35.5 µM [cytotoxic, partial curve]"
same,Potency,[2],active: 44.7 µM
same,Potency,[3],active: 31.9 µM
OCCN1CCN(CCO)CC1,Potency,[1],inactive
same,"ratio activity, negative = MMP loss",[2],inconclusive: 11.3% [at 95.3 µM]
same,"activity change, negative = inhibition",[3],inconclusive: 24.8% [at 78.9 µM]
CCCN(CCC)CCc1cccc2c1CC(=O)N2,Potency,[1],inactive
same,Potency,[2],inactive
same,"activity change, negative = inhibition",[3],inconclusive: -1.36%
O=C(O)CN(CCN(CC(=O)O)CC(=O)O)CCN(CC(=O)O)CC(=O)O,Potency,[1],"inconclusive: 13.3 µM [activator, full curve, poor fit]"
same,Potency,[2],inactive
same,"activity change, negative = inhibition",[3],inconclusive: 32.2%
CCCCOC(=O)CCS,Potency,[1],inactive
same,"ratio activity, negative = MMP loss",[2],inconclusive: 34.6%
same,"activity change, negative = inhibition",[3],inconclusive: 41.4%
Nc1nc2ncc(CNc3ccc(C(=O)N[C@@H](CCC(=O)O)C(=O)O)cc3)nc2c(=O)[nH]1,Potency,[1],"inconclusive: 2.73 µM [falling, single point]"
same,Potency,[6],"inconclusive: 15.8 µM [fluorescent, partial curve, poor fit] and active: 44.7 µM [fluorescent]"
same,Potency,[7],"inconclusive: 14.1 µM [rising, single point]"
same,Potency,[8],"inconclusive: 14.1 µM [fluorescent, partial curve, poor fit] and active: 35.5 µM [fluorescent]"
same,Potency,[9],"inconclusive: 14.1 µM [fluorescent, partial curve, poor fit] and inconclusive: 44.7 µM [fluorescent, single point]"
same,Potency,[3],inactive
Nc1cccc2c(N)cccc12,activation,[1],inconclusive: 6.31%
same,Potency,[2],active: 0.864 µM
same,Potency,[3],"inconclusive: 0.776 µM [cytotoxic, full curve, poor fit]"
Cc1[nH]cnc1C[C@H]1CCc2c(C)c3ccccc3n2C1=O,Potency,[1],inconclusive: 59.6 µM [activator]
same,Potency,[2],"inconclusive: 13.3 µM [activator, partial curve] and inconclusive: 23.7 µM [activator, partial curve]"
same,Potency,[3],"inconclusive: 1.9 µM [activator, single point]"
same,Potency,[5],"inconclusive: 1.9 µM [rising, single point]"
CC[C@H](NC(=O)c1cc(F)ccc1NS(=O)(=O)c1cccc2cccnc12)c1ccccc1,Potency,[1],"inconclusive: 46 µM [falling, partial curve]"
same,Potency,[4],"inconclusive: 46.3 µM [falling, partial curve]"
same,Potency,[3],inconclusive: 52 µM [cytotoxic]
NCCCNCCSP(=O)(O)O,Potency,[1],"inconclusive: 6.68 µM [falling, partial curve, poor fit]"
same,Potency,[2],inactive
same,"activity change, negative = inhibition",[3],inconclusive: 3.8%

# From PubChem BioAssay (Tox21)
